According to PubChem BioAssay AID1347417 (National Center for Advancing Translational Sciences (NCATS), 2020):
Out of some 120,000 compounds screened, about 5,300 (4.4%) were called active. The inconclusive results got no clear call from the source; some entries with a clear call stand among them for comparison. The call rests on the fitted dose curve; in most records, active means well fitted inhibition curve with a large enough effect; inconclusive means small, poorly fitted or top-dose-only effect; inactive means no such curve, though single readings can be large or run the other way. A potency beside an inconclusive call is a rough fit, not a confirmed value.

assay: qHTS Primary assay for Inhibitors of Plasmodium falciparum Dd2 growth in vitro; further: nearly all actives have a fitted effect of over 65% in size;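 on activity, negative = inhibition: plate controls were DMSO vehicle for no effect and reference drug for full effect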; conditions: P. falciparum Dd2 growth, SYBR Green, 72 h; activity, negative = inhibition: at 28.9 µM (top of the series) unless noted; series mostly up to 28.9 µM
In short: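 Infected erythrocytes (Dd2, 0.3% parasitemia, 2.5% hematocrit final) are added to compound in RPMI-1640/Albumax II medium, grown 72 h at 37C in low oxygen, then lysed with saponin/Triton-X containing SYBR Green and read by fluorescence.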
Potency means the concentration at half of the fitted maximal effect; tags describe the fitted curve by direction and shape.

Compound	Potency	activity, negative = inhibition	outcome
Cc1ccccc1CN1C(=O)c2ccccc2S(=O)c2ccc(C(=O)NCc3ccco3)cc21 (centres undefined)	inconclusive: 17.8 µM [inhibitor, single point]		
O=C(c1n[nH]c2c1CCCC2)N1CCC2(CC1)NC(=O)N(c1ccccc1)N2	active: 3.16 µM		
CC1(c2ccccc2)N(Cc2cccnc2)C(=O)OC12CCN(Cc1ccc3c(c1)CCO3)CC2 (centres undefined)	inactive		
Cc1ccc(C)c(CN2C(=O)c3ccccc3S(=O)c3ccc(C(=O)NCCc4ccc(Cl)cc4)cc32)c1 (centres undefined)	active: 5.01 µM		
CCN1CC(c2ccccc2)CC2(CCN(CC(=O)N(C)CC)CC2)C1 (centres undefined)	inconclusive: 11.2 µM [inhibitor, single point]		
COc1ccc(NC(=O)c2cc(C3CC3)nc3c2c(C)nn3-c2ccc(C)cc2)cc1OC		inconclusive: -66.6% [inhibitor] [at 5.79 µM]	
COCCN1C(=O)CS(=O)C12CCN(S(=O)(=O)c1cn(C)cn1)CC2 (centres undefined)	inactive		
COc1ccccc1CNC(=O)c1oc2c(c1C)-c1nn(Cc3ccc(Cl)cc3)cc1CC2	inconclusive: 10 µM [inhibitor, single point]		
COc1ccc(C(=O)N2CCC(c3c[nH]c4ccccc34)(c3c[nH]c4ccccc34)CC2)cc1	inconclusive: 3.98 µM [inhibitor, partial curve, poor fit]		
COc1ccccc1C(=O)NC1CCCc2c1[nH]c1c(Cl)cccc21 (centres undefined)	inconclusive: 20 µM [inhibitor, single point]		
COc1ccc(N2CCN(C(=O)CCS(=O)(=O)c3cc(Br)cc4c3N(C(=O)C3CC3)CC4)CC2)cc1	active: 5.01 µM		
COc1nc2c(cc1CNC(=O)C1CCOC1)C(=O)N(CCc1ccccn1)C2 (centres undefined)	inactive		
COCc1nc2nc(-c3ccccc3)c(-c3ccccc3O)cc2n1C	active: 4.47 µM		
COC(=O)[C@H](NC(=O)[C@@]1(O)C[C@@H](O)[C@H](O)[C@@H](NC(=O)Nc2ccc(OC(F)(F)F)cc2)C1)C(C)C	inactive		
O=C(c1ccco1)N1CCCC(CCc2cccc(F)c2)C1 (centres undefined)	inactive		
CCN(CC)C(=O)C(NC(=O)c1ccc(F)cc1)C1CCN(C(=O)CC(C)C)CC1 (centres undefined)	inactive		
COc1ccc(-c2cc(N3CCCC3)nc(N)n2)c2ccc(C)nc12	inactive		
CCC(CC)C(=O)NC[C@H]1C[C@@H]2CCN1C[C@@H]2c1cc(-c2ccccc2Br)nc(C)n1	inconclusive: 17.8 µM [inhibitor, single point]		
CCn1ncc(CN2C[C@@H](COCC3CC3)[C@H](c3ccccn3)C2)c1C	inconclusive: 3.16 µM [inhibitor, full curve, poor fit]		
COc1cccc(C2Cn3nnc(-c4nc(-c5ccc(OC)c(F)c5)no4)c3CO2)c1 (centres undefined)	inconclusive: 3.55 µM [inhibitor, single point]		
COc1cc(OC)cc(C(=O)N2CCC3(CC2)NC(=O)N(c2ccc(F)cc2)N3)c1	inactive		
COc1ccc(C(=O)NCC2Cn3cccc3CN2Cc2cccnc2)cc1 (centres undefined)	inconclusive: 11.2 µM [inhibitor, single point]		
COc1cccc(CN2CCCC(O)(CNC3CCCCCCC3)C2=O)c1 (centres undefined)	inconclusive: 7.08 µM [inhibitor, partial curve]		

Compound	Potency	activity, negative = inhibition	outcome
CN(C)c1cccc(C(=O)N2CCNc3cnc(Nc4ccc(N5CCOCC5)cc4)nc3C2)c1	inconclusive: 8.91 µM [inhibitor, partial curve, poor fit]		
CC(C(=O)NCC1CCCO1)N1C(=O)COc2ccc(C(=O)COc3cccc(Cl)c3)cc21 (centres undefined)	inconclusive: 6.31 µM [inhibitor, partial curve]		
CCN1CCN(c2cc(C)c3cc(NC(=O)/C=C/c4cccc(Cl)c4)ccc3n2)CC1	active: 3.16 µM		
COCCNC(=O)CCCN1C(=O)COc2ccc(C(=O)COc3ccc(C)cc3Cl)cc21	inactive		
COc1ccccc1CC(=O)N1CC2(CCN(C)CC2)c2cc(OC)c(OCc3ccccc3)cc21	inconclusive: 1.41 µM [inhibitor, partial curve, poor fit]		
O=C(NC1CCCC1)c1ccc(CSc2nc3ccncc3n2Cc2ccc(F)cc2)cc1	inconclusive: 10 µM [inhibitor, single point]		
Cc1ccc(-n2nc(C)c([C@@H]3C=C[C@@H](NC(=O)NC(C)C)C3)c2C)cc1Cl	inconclusive: 5.62 µM [inhibitor, single point]		
Cc1cc(C[C@@H]2COC[C@@H]2NC(=O)c2cn(C)c3ccccc23)on1	inactive		
O=C1NC(=NC2CCCC2)C2(CCN([S+](=O)([O-])c3cccc(C(F)(F)F)c3)C2)N1c1cc(F)cc(F)c1 (centres undefined)	inactive		
CN(C)c1ccc(NC(=O)c2ccc3c(c2)N(C)C2CCCCN2C3=O)cc1 (centres undefined)	inconclusive: 0.141 µM [inhibitor, full curve, poor fit]		
Cc1ccc(NC(=O)Nc2nnc(SCC(=O)N3CCC(C)CC3)s2)cc1	inconclusive: 17.8 µM [inhibitor, single point]		
Cc1ccc(-n2cccn2)c(CN2CCC(CNS(C)(=O)=O)C2)c1 (centres undefined)	inconclusive: 11.2 µM [inhibitor, partial curve, poor fit]		
Cc1ccccc1CNC[C@H]1O[C@@H]2C[C@@H](CC(=O)NCc3cnn(C)c3)O[C@@H]2[C@@H]1O	inactive		
COc1ccc(C(=O)N2C[C@@H]3CCCN4CCC[C@@H]([C@H]34)[C@H]2CCCC(=O)N2CCOCC2)cc1	inactive		
CC(C)c1noc(-c2cn(C3CCN(C(=O)c4ccc(C#N)cc4)C3)nn2)n1 (centres undefined)	inactive		
Cn1nccc1C(=O)NCC1Cc2cc(-c3cccc(OC(F)(F)F)c3)ccc2O1 (centres undefined)	inconclusive: 12.6 µM [inhibitor, single point]		
O=c1c2cc3c(nc2ncn1Cc1ccccc1F)CCCC3	inconclusive: 0.0251 µM [inhibitor, full curve, poor fit]		
N[C@@H]1CCN(Cc2ccccc2OCc2ccc(Cl)cc2)C[C@H]1O	active: 4.47 µM		
CCOC(=O)c1cnc2c(ccc3ccccc32)c1Nc1ccc(OC)c(OC)c1	active: 3.55 µM		
Cc1cccc(C2C=C(c3ccc(F)cc3)Nc3nc4ccccc4n32)c1 (centres undefined)	inconclusive: 11.2 µM [inhibitor, single point]		
O=C(c1ccccc1)N1C[C@H]2OC(=O)N(CCCN3CCOCC3)[C@H]2C1	inactive		
Cc1ccc(-c2noc([C@@H]3C[C@H](NS(=O)(=O)Cc4ccccc4)CN3C)n2)cc1	inconclusive: 11.2 µM [inhibitor, single point]		
COC1CCCN(c2ncc(C(C)(C)C(=O)O)c(N3CCOCC3)n2)C1 (centres undefined)	inactive		

Compound	Potency	activity, negative = inhibition	outcome
CCc1ccc(C(=O)N2CCC(Oc3nccnc3N(C)C)C2)cc1 (centres undefined)	inconclusive: 20 µM [inhibitor, single point]		
C=CCCC(CN1CCCOCC1)Oc1ccc(Cn2ccnc2)cn1 (centres undefined)	inactive		
Cc1ccc(-c2nn3c(-c4ccc(C)cc4)nnc3c3ccccc23)cc1	inconclusive: 10 µM [inhibitor, partial curve, poor fit]		
Cn1nc2n(c1=O)CCN(S(=O)(=O)c1ccc(Cl)s1)CC2	inactive		
COc1ccc(CN2CCC3(CC2)NC(=O)c2ccccc2O3)cc1	active: 12.6 µM		
O=C(NCc1ccccc1)C(=O)NCC(c1cccnc1)N1CCN(c2ccccc2)CC1 (centres undefined)	inconclusive: 12.6 µM [inhibitor, single point]		
O[C@H]1[C@H](NCc2ccc(-c3ccccc3)cc2)[C@H]2CO[C@H](O2)[C@@H]1Oc1ccccc1	inconclusive: 0.447 µM [inhibitor, full curve, poor fit]		
COC(=O)[C@@H]1Cc2ncn(Cc3ccc(Cl)cc3)c2CN1C(=O)CC(C)(C)CC(=O)O	inactive		
Cc1cccc(-c2nc(Cn3c(SCc4cc(C)ccc4C)nc4ccncc43)c(C)o2)c1	inconclusive: 17.8 µM [inhibitor, single point]		
CCc1ccc(NC(=O)CSc2nc3ccsc3c(=O)n2C(C)CC)cc1 (centres undefined)	inconclusive: 11.2 µM [inhibitor, single point]		
Cc1cc(C)c(S(=O)(=O)NCCn2c(C)cnc2C2CC2)cc1C	active: 11.2 µM		
O=C(c1nc(-c2ccc(Cl)cc2Cl)c2cnccn12)N1CCOCC1	inconclusive: 10 µM [inhibitor, single point]		
CCOc1ccccc1CN(CCc1ccc2c(c1)OCO2)Cc1cccc(OC)c1OC	inconclusive: 12.6 µM [inhibitor, single point]		
CSc1cccc(NC(=O)Cn2c(-c3cnccn3)nc(C)c(CCO)c2=O)c1	inactive		
CCOc1ccc(C(=O)NCCn2ccn3nc(-c4ccc(OC)cc4)cc3c2=O)cc1	inactive		
CCCN(CC1CCOC1)C(=O)Nc1ccc(C)cc1Cl (centres undefined)		inactive: 2.9% [at 5.79 µM]	
Cc1cccc2c(C3CCN(S(=O)(=O)c4cc(Cl)cc(Cl)c4)CC3)c[nH]c12	inconclusive: 11.2 µM [inhibitor, partial curve]		
Cc1ccc(OCCC2CCN(C(=O)c3ccc(C)nc3)C2)cc1 (centres undefined)	inactive		
Cc1nc(-c2c3n(c(=O)n(CC(=O)NCc4ccccc4Cl)c2=O)CCCCC3)no1	inactive		
CCOC(=O)CCn1nc(C)c2c(C)n(-c3ccccc3)nc2c1=O	inconclusive: 17.8 µM [inhibitor, single point]		
CO[C@H]1C(=O)N(C(C)C)[C@H]1C1CCN(C(=O)c2cccnc2C)CC1	inactive		
Cc1noc(-c2ccc(OC3CN(C(=O)CCc4ccccc4)C3)cc2)n1			inactive [at 5.79 µM]
O=C(NCC1(COc2ccccc2)C[C@@H](O)[C@@H](O)C1)c1ccc(F)cc1 (some centres undefined)	inconclusive: 31.6 µM [inhibitor, single point]		
